Laboratory results reported in PubChem BioAssay AID588453 (National Center for Advancing Translational Sciences (NCATS), 2011).
The campaign covered roughly 390,000 compounds. About 4,000 (1%) were called active. Inconclusive results, whose numbers are uncertain, are shown with a selection of clear calls. Calls follow the shape of the dose curve; as a rule, active = well fitted inhibition curve with a large enough effect; inconclusive = small, poorly fitted or top-dose-only effect; inactive = no such curve, though single readings can be large or run the other way. Potencies beside an inconclusive call are fits to weak or partial responses and may not hold up.

target: Thioredoxin reductase 1, cytoplasmic (Rattus norvegicus) (UniProt O89049); experiment: qHTS Assay for Inhibitors of Mammalian Selenoprotein Thioredoxin Reductase 1 (TrxR1): qHTS; conditions: recombinant rTrxR1, NADPH fluorescence consumption, selenite substrate; series mostly up to 114 µM; activity change, negative = inhibition: at the top concentration; also: nearly all actives have a fitted effect of over 65% in size
UniProt O89049, sequence (O89049 whole entry, looked up): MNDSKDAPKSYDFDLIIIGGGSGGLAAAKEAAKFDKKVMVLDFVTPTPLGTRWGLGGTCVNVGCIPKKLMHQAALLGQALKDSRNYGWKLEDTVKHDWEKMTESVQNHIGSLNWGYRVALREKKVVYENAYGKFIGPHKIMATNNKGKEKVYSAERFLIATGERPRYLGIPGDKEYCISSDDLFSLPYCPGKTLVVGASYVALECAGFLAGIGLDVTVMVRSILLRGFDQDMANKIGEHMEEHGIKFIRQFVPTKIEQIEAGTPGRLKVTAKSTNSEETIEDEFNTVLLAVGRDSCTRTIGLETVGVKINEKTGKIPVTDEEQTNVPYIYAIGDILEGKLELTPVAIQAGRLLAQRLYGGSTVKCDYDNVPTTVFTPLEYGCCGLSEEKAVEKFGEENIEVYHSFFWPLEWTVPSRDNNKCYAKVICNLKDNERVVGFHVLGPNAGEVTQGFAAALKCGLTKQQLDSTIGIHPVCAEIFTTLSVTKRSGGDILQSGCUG
How it was run: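 Rat TrxR1 (90 nM in the dispensed reagent) was pre-reduced with 400 uM NADPH for 5 min at room temperature, then incubated with compound for 15 min. After 400 uM selenite was added, NADPH fluorescence (Ex 340/Em 450 nm) was followed for 8 min.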
% is scaled to controls: 0 for no effect and ±100 for the full control effect; potency is read from the fitted curve at half-maximal effect; tags tell the direction and shape of the fitted curve.

Structure (SMILES) | Potency | activity change, negative = inhibition
N=c1c(C(=O)NCC2CCCO2)cc2c(=O)n3ccccc3nc2n1Cc1cccnc1 (stereo not drawn) | inconclusive: 63.1 µM [inhibitor, single point] | 
CN(C)c1ccc(C(=C2C=CC(=[N+](C)C)C=C2)c2c(O)c(S(=O)(=O)[O-])cc3cc(S(=O)(=O)O)ccc23)cc1 |  | inactive: -11.6%
Cn1cnc([N+](=O)[O-])c1Sc1ccccc1 | inconclusive: 70.8 µM [inhibitor, partial curve] | 
O=c1cc(O)n(-c2ccccc2F)c(=S)[nH]1 | inconclusive: 39.8 µM [inhibitor, single point] | 
CCc1ccccc1OCC(=O)Nc1ccc(N2CCCC2)cc1C | inconclusive: 25.1 µM [inhibitor, single point] | 
COC(=O)c1ccccc1NC1=C/C(=N\S(=O)(=O)c2ccc(C(=O)O)cc2)c2ccccc2C1=O | inconclusive: 39.8 µM [inhibitor, single point] | 
Oc1[nH]c2ccccc2c1/C=N/N1CCCCC1 | inconclusive: 35.5 µM [inhibitor, full curve] | 
Cc1ccc(C(=O)NC(=S)NCc2ccccc2)cc1 | inconclusive: 50.1 µM [inhibitor, partial curve] | 
CCC(c1nnc(SCc2nc3ccccc3s2)n1Cc1ccccc1)N(C)C (stereo not drawn) |  | inactive: -1.37% [at 57.1 µM]
Cn1c(=O)n(C)c2cc(NS(=O)(=O)c3ccc(Cl)cc3)c(NCc3ccccc3)cc21 | inconclusive: 89.1 µM [inhibitor, single point] | 
O=C(NNC1=NS(=O)(=O)c2ccccc21)c1ccccc1Cl | inconclusive: 35.5 µM [inhibitor, partial curve, poor fit] | 
CCOc1ccc(N(C(C)C(=O)N2CCCC2)S(C)(=O)=O)cc1 (stereo not drawn) |  | inactive: 7.2% [at 57.1 µM]
CCOC(=O)C1=C(CC)OC(N)=C(C#N)C1c1cc(OC)ccc1OC (stereo not drawn) |  | inactive: 1.64%
COc1cc(OC)cc(C(=O)N(Cc2ccco2)Cc2cccs2)c1 |  | inactive: 12%
CCC(=O)N/N=C(\C)CC(=O)Nc1ccc(F)cc1 | inconclusive: 50.1 µM [inhibitor, partial curve, poor fit] | 
Cc1ccc(/C(O)=C2/C(=O)C(=O)N(CCN3CCOCC3)C2c2ccccn2)cc1 (stereo not drawn) | inconclusive: 25.1 µM [inhibitor, single point] | 
COc1cc2c(cc1OC)C(c1ccc(-c3ccc(Cl)c(Cl)c3)o1)=NCC2 | inconclusive: 79.4 µM [inhibitor, single point] | 
COc1ccccc1CNc1ccc(N2CCCCC2)cc1 | inconclusive: 15.8 µM [inhibitor, single point] | 
N#Cc1ccccc1S(=O)(=O)N1CCN(C(=O)C2CC(=O)N(c3ccc4c(c3)OCCO4)C2)CC1 (stereo not drawn) | inconclusive: 89.1 µM [inhibitor, single point] | 
Cc1nn2c(=O)cc(COC(=O)c3ccccc3NC(=O)C3CCCCC3)nc2s1 |  | inactive: 6.61% [at 57.1 µM]
CCOc1cccc(/C=C(/C#N)c2nc3ccccc3[nH]2)c1OCC(=O)O |  | inactive: -4.89%
Cc1ccc(S(=O)(=O)N2[C@@H](c3ccc(Cl)c(Cl)c3)C(C(=O)O)=C[C@H]2C(C)(C)C)cc1 | inconclusive: 70.8 µM [inhibitor, single point] | 
CC(=O)N1CCN(CCN=CC2=C(O)CC(c3ccco3)CC2=O)CC1 (stereo not drawn) | inconclusive: 15.8 µM [inhibitor, partial curve, poor fit] | 

Structure (SMILES) | Potency | activity change, negative = inhibition
S=c1[nH]nc(COc2ccccc2)n1/N=C/C(Cl)=C/c1ccccc1 | inconclusive: 4.47 µM [inhibitor, partial curve, poor fit] | 
CN(C)CCn1c(NC(=O)c2ccc(Cl)cc2)nc2ccccc21 |  | inactive: 74.3%
CCCCN(C)c1nc(-c2ccco2)c2c(c1C#N)CC(C)(C)OC2 | active: 3.55 µM | 
Cc1cccc(N2C(=O)CC(Sc3nc(C)c4c(n3)CCCC4)C2=O)c1 (stereo not drawn) | inconclusive: 15.8 µM [inhibitor, full curve, poor fit] | 
CN(c1ccc(OCC(=O)N2CCN(c3ccc(F)cc3)CC2)cc1)S(=O)(=O)c1cccs1 |  | inactive: -4.16%
O=C(CCNS(=O)(=O)c1ccccc1)NNC(=O)COc1ccccc1F | inconclusive: 79.4 µM [inhibitor, single point] | 
O=C1[C@@H]2C(c3cccnc3)=NO[C@@H]2C(=O)N1c1ccc(Br)cc1 | active: 28.2 µM | 
Cc1cc(C)c2nc(SCC(=O)NCCC3=CCCCC3)cc(C)c2c1 |  | inactive: -15.1%
Cc1nn(C)c(-c2n[nH]c(=S)n2-c2ccccc2)c1Cl | inconclusive: 0.891 µM [inhibitor, full curve] | 
C/C=C/C=C/C(=O)N1CC2(CC(c3cccc(NC(=O)/C=C/C)c3)=NO2)C[C@@H]1C(N)=O (stereo partly drawn) | inconclusive: 50.1 µM [inhibitor, partial curve, poor fit] | 
CC1CCCN(C2(O)C(=O)Nc3ccc([N+](=O)[O-])cc32)C1 (stereo not drawn) |  | inactive: 1.86%
O=C1CC(c2ccccc2)CC(=O)C1CS(=O)(=O)c1ccccc1 (stereo not drawn) | inconclusive: 50.1 µM [inhibitor, partial curve] | 
O=S(=O)(c1ccc(Br)cc1)c1cnc2ccccc2n1 | inconclusive: 50.1 µM [inhibitor, partial curve] | 
FC(F)(F)c1ccccc1NC(=S)Nn1cnnc1 | inconclusive: 44.7 µM [inhibitor, partial curve] | 
COc1ccc(N2CCN(CCC(=O)c3ccc4ccccc4c3)CC2)cc1 | active: 1.78 µM | 
COc1ccc(/C=C/C(=O)c2ccccn2)cc1 | inconclusive: 79.4 µM [inhibitor, single point] | 
COc1ccc(Cl)cc1/C=C1/C(=O)ON=C1C | inconclusive: 50.1 µM [inhibitor, partial curve] | 
CCCC(=O)C1=C(N(C)c2ccccc2)CC(C)(C)CC1=O |  | inactive: 0.548%
COc1ccc(C(=O)NC(=S)Nc2cccnc2)cc1[N+](=O)[O-] | active: 10 µM | 
CCOC(=O)c1ccc(NC(=O)CSc2nnc(CNC(=O)c3ccco3)o2)cc1 | inconclusive: 79.4 µM [inhibitor, single point] | 
CC(=O)OC1CCC2(C)C(COc3ccc4ccc(=O)oc4c3)C(C)(O)CCC2C1(C)C (stereo not drawn) | inconclusive: 35.5 µM [inhibitor, partial curve, poor fit] | 
CCCCCOc1ccc(C(=O)CCN2CCOCC2)cc1 | active: 10 µM | 
O=C1OC(CN2CCOCC2)CN1N=Cc1ccc([N+](=O)[O-])o1 (stereo not drawn) | inconclusive: 63.1 µM [inhibitor, partial curve, poor fit] | 

Structure (SMILES) | Potency | activity change, negative = inhibition
Cc1cccc(Nc2n[nH]c(=S)s2)c1C | inconclusive: 1.12 µM [inhibitor, full curve] | 
O=C1NN(c2ccccc2)C(=O)/C1=C\c1ccccc1 | active: 28.2 µM | 
O=C(Nc1ccccc1)ON=C1CCCC1 | inconclusive: 100 µM [inhibitor, single point] | 
Cc1c(Cl)cccc1-c1ccc(C(=O)Nc2ccc3oc(-c4cccnc4)nc3c2)o1 | inconclusive: 17.8 µM [inhibitor, full curve] | 
Cc1ccccc1-c1nc(CS(=O)(=O)CC(=O)NCc2ccco2)c(C)o1 | inconclusive: 79.4 µM [inhibitor, single point] | 
Cn1c(NC(=S)Nc2ccccc2)nc2ccccc21 |  | inactive: 9.13% [at 57.1 µM]
Oc1c(Br)cc(C2N=C(c3ccccc3)NO2)cc1Br (stereo not drawn) | inconclusive: 25.1 µM [inhibitor, partial curve, poor fit] | 
COc1ccc(C(=O)NC(=S)NCCc2ccccc2)cc1 | inconclusive: 35.5 µM [inhibitor, full curve] | 
Cc1ccc(NN=Nc2nc3c([nH]2)c(=O)n(C)c(=O)n3C)cc1 | inconclusive: 56.2 µM [inhibitor, partial curve, poor fit] | 
Cc1c(/C=C2\SC(=Nc3cccc(C(=O)O)c3)NC2=O)c2ccccc2n1C | inconclusive: 50.1 µM [inhibitor, partial curve] | 
COc1ccccc1N1CCN(C(=O)C2CCN(S(=O)(=O)c3cccs3)CC2)CC1 |  | inactive: 1.88%
COc1ccc(Cl)cc1NC(=O)c1c(NCc2cccnc2)sc2c1CCCC2 | inconclusive: 39.8 µM [inhibitor, single point] | 
CC(C)(C)OC(=O)N1CCC(c2c(C(=O)NCCc3ccsc3)cnn2-c2ccc(F)cc2F)CC1 |  | inactive: 19%
Cc1ccn(C(CC(=O)c2ccc(Br)cc2)C(=O)O)n1 (stereo not drawn) | inconclusive: 15.8 µM [inhibitor, single point] | 
CCn1c(=O)c(C(=O)CN2CCCc3ccccc32)c(N)n(Cc2ccccc2)c1=O | inconclusive: 31.6 µM [inhibitor, partial curve, poor fit] | 
Cc1occc1C(=O)NC(C)C(C)(C)C (stereo not drawn) | inconclusive: 17.8 µM [inhibitor, full curve] | 
CCn1cc(C(=O)Nc2ncccc2O)c(=O)c2cc(F)c(N3CCN(C(=O)c4ccco4)CC3)cc21 | inconclusive: 44.7 µM [inhibitor, partial curve] | 
Cc1ccc(C(=O)Nc2nnc(SCC(=O)N3CCCc4ccccc43)s2)cc1 |  | inactive: 22.5%
COCC(C)n1c(SCC(=O)Nc2oc(C)c3c(C)n[nH]c(=O)c23)nc2ccccc2c1=O (stereo not drawn) | inconclusive: 50.1 µM [inhibitor, partial curve] | 
O=C(NC(Cc1ccccc1)C(=O)O)/C(=C\c1ccco1)NC(=O)c1ccccc1 (stereo not drawn) | inconclusive: 79.4 µM [inhibitor, partial curve] | 
CC(=O)C1=C(c2cccc([N+](=O)[O-])c2)N(C(C)=O)n2c(C)nnc2S1 | inconclusive: 22.4 µM [inhibitor, full curve, poor fit] | 
Cc1cc(S(=O)(=O)N2CCOCC2)ccc1OCC(=O)NCc1ccco1 |  | inactive: -8.46% [at 57.1 µM]
